According to article PMC6956818, “Activation of JNK and p38 MAPK Mediated by ZDHHC17 Drives Glioblastoma Multiforme Development and Malignant Progression” (Theranostics, 2020):
Results are given in words; binding and its absence hold for the method and conditions named. Binding seen in cells or lysates may run through a third protein. Some binding calls cover weakened binding; strength is not graded here. For part of these data: Tags and fused reporters may be left off the sequences shown.

By UniProt entry, the sequences of proteins in these tests, tags left out. Where a name states a change or a piece, a line headed by the entry shows the natural chain unless it says otherwise. Chains listed by the source or under a name are the forms on record and can include a tag or linker.
UniProt O14733: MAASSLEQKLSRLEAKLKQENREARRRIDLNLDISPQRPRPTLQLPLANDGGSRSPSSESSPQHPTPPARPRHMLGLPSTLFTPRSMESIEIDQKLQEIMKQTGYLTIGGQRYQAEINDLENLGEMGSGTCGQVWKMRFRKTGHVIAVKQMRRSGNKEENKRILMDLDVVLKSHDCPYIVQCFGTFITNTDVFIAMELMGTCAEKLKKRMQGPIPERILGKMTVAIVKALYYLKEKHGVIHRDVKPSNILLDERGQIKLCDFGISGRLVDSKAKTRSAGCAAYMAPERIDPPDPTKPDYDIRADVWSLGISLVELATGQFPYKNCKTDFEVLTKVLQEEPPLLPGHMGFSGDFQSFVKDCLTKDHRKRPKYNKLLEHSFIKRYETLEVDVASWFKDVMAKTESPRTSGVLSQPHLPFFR
UniProt P45985: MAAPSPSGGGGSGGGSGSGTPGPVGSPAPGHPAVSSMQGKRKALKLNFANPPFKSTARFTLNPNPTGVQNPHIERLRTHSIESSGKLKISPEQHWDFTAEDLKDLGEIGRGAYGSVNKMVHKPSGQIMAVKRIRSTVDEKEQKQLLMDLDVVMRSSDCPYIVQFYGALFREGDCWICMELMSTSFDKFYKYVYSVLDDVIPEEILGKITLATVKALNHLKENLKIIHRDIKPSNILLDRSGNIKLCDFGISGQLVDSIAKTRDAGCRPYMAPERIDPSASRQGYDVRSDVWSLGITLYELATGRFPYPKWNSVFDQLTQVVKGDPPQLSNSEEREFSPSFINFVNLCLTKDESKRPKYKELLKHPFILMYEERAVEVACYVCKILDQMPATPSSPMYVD
UniProt Q8IUH5: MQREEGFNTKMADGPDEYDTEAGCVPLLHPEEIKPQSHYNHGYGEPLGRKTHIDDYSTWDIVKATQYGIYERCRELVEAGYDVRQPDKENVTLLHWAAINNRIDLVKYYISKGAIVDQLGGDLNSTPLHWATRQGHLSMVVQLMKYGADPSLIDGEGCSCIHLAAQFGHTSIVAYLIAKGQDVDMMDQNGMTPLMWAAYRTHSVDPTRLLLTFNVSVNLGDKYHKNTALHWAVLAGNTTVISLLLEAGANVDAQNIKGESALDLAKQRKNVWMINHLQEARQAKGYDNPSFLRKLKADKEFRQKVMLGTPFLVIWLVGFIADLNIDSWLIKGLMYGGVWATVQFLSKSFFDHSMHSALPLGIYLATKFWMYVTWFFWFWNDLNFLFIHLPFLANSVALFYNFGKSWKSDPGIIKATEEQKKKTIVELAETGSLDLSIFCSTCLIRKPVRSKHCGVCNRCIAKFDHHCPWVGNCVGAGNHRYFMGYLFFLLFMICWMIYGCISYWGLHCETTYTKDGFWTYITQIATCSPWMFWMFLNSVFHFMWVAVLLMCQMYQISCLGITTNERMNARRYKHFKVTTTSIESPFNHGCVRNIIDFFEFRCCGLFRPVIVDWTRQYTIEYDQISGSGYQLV
Myc-ZDHHC17 ΔANK (Q8IUH5, form named): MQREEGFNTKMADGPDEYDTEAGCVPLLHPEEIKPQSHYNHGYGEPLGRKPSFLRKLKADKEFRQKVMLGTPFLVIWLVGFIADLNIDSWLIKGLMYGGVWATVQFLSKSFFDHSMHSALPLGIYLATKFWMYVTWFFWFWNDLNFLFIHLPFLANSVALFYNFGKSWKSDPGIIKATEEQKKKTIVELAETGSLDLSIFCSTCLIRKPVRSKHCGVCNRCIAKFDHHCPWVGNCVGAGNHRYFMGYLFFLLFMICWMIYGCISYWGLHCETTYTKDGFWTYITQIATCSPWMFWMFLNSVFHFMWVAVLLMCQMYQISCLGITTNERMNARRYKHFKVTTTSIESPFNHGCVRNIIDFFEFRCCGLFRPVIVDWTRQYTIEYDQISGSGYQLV
Myc-ZDHHC17 ΔDHHC (Q8IUH5, form named): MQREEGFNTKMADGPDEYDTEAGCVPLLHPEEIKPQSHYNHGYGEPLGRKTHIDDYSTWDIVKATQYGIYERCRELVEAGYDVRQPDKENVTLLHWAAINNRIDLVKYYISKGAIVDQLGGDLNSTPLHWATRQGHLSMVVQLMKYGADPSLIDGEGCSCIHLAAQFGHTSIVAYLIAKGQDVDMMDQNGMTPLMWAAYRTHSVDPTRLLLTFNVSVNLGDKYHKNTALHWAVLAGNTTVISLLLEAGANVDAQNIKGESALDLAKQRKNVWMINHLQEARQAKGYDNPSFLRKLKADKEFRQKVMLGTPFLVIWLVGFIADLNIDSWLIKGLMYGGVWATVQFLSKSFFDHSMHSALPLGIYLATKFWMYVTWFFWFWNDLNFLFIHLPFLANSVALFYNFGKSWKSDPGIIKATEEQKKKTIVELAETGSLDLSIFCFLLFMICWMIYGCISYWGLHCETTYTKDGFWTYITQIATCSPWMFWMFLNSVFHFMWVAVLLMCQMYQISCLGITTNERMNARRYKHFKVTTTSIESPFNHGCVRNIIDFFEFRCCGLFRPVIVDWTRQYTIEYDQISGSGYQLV

Columns and labels:
Assay in all cases: co-IP; lysates (RIPA buffer) of HEK293 cells co-expressing Myc-ZDHHC17 (or its mutants) and Flag-MAPKKs (or MAP2K4 mutants); IP with agarose-immobilized antibody at 4 °C overnight, IB with anti-FLAG and anti-Myc
Flag-MAP2K7 = Flag-MAP2K7 (UniProt O14733)
Flag-MAP2K3 = biological target: T1, Flag-MAP2K3 (UniProt P46734)
T1 sequence: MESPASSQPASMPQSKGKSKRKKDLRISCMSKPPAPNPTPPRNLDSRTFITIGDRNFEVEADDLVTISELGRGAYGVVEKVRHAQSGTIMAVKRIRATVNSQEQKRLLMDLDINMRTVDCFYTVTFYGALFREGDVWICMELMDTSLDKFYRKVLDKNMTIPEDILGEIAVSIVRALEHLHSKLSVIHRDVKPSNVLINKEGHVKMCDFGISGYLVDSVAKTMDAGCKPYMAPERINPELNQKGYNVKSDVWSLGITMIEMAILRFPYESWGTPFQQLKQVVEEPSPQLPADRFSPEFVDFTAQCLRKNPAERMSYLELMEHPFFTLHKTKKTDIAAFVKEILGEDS

Flag-MAP2K2 = Flag-MAP2K2 (UniProt P36507)
Flag-MAP2K6 = biological target: T2, Flag-MAP2K6 (UniProt P52564)
T2 sequence: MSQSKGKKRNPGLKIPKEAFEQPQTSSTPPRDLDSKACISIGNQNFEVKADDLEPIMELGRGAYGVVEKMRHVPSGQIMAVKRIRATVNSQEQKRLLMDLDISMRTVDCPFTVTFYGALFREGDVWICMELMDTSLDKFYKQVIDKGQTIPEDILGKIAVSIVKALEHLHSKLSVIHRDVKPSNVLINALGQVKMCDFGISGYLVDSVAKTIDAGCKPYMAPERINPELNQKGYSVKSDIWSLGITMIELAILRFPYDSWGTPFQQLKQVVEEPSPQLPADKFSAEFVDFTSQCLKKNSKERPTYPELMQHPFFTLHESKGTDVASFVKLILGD

Flag-MAP2K4 (human) = Flag-MAP2K4 (human) (UniProt P45985)

| binding (Flag-MAP2K7) | binding (Flag-MAP2K3) | binding (Flag-MAP2K2) | binding (Flag-MAP2K6) | binding (Flag-MAP2K4 (human)) | Substance |
| --- | --- | --- | --- | --- | --- |
| binds | no binding | no binding | no binding | – | Myc-ZDHHC17 (from UniProt Q8IUH5 1-632) |
| – | – | – | – | no binding | Myc-ZDHHC17 ΔANK (from UniProt Q8IUH5 1-632) |
| – | – | – | – | binds | Myc-ZDHHC17 ΔDHHC (from UniProt Q8IUH5 1-632) |
